The values below come from the supplement of paper PMC10441789.

The other results are listed elsewhere or left out. Antibody binding of pooled human sera (four to six donors per pool; dilution not stated) to peptides of the Trypanosoma cruzi antigen TSSA on microarrays. Quantile-normalised fluorescence in arbitrary units, mean of duplicate arrays; higher = more binding. No active / inactive call. The uninfected pools are read here as the healthy donors of the same country. The strongest signals lie near the top of the scale (about 60,000).

This assay relates to pooled sera of chronic Chagas disease patients, Argentina. The experiment in a line: antibody binding signal (normalised fluorescence) (arbitrary fluorescence units); higher = stronger serum antibody binding to peptide. As to the method: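 Microarray of 15-residue peptides over residues 30-55 of Trypanosoma cruzi TSSAII, each with 1 to 10 substitutions at naturally variable positions, probed with one serum pool per country.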
For the sequence KDNKAATGGAPSQSG, the antibody binding signal is 330.
Turning to TDKKTAAGEAPSPPG, the antibody binding signal was determined as 410.
Sequence STPPSGKDNKTAAGG returned an antibody binding signal of 27400.
For TISTPPSGTDKKAAA, the antibody binding signal stood at 31900.
Regarding PPSGKENKTAAGGTP, the antibody binding signal came to 8800.
The sequence PPSGKENKTAAGEAP had an antibody binding signal of 6650.
In turn, GTDKKPATGETPSQS yielded an antibody binding signal of 37600.
Turning to GKENKTATGGAPSPS, the antibody binding signal was found to be 2730.
The sequence SGTDKKTATGGAPSQ returned an antibody binding signal of 3770.
Sequence KEKKPATGGTPSPSG displayed an antibody binding signal of 430.
Regarding GTEKKPAAGETPSQP, the antibody binding signal was 3020.
With GKDNKAAAGGAPSPP, the antibody binding signal was 338.
Under GKENKAATGEAPSPP stands 28500; under GTEKKAAAGGTPSPS, 611; under KENKTATGETPSQPG, 1770.
Consider TISTPPSGTENKPAA, for which the antibody binding signal came to 48400.
On to KAAAGETPSPSGASS, for which the antibody binding signal was 175.
Sequence GKENKAAAGEAPSPS gave an antibody binding signal of 13100.
The same measure for TPPSGTENKPATGGT: 49000.
Consider TDKKAAAGEAPSPSG, for which the antibody binding signal stood at 647.
The same measure for GKDNKPATGGTPSQS: 736; for SGKENKPAAGGTPSQ: 3290; for TPPSGTDKKPAAGEA: 28400.
Take GTEKKPATGGTPSQS: the antibody binding signal amounted to 1150.
TEKKAAAGETPSPSG: the antibody binding signal was determined as 977.
Sequence SGTENKTATGETPSQ showed an antibody binding signal of 18000.
GKDNKPAAGGTPSQP had an antibody binding signal of 374.
Consider ENKTAAGEAPSQPGA, for which the antibody binding signal is 7800.
The sequence KPAAGEAPSPSGASS showed an antibody binding signal of 761.
Under STPPSGTEKKPATGE stands 44100; under TENKTATGETPSPSG, 20500; under GTENKAATGETPSPP, 35600.
Under TENKTATGGTPSPSG stands 21500; under PSGTENKAAAGGTPS, 48000.
For the sequence DKKPAAGETPSQSGA, the antibody binding signal was determined as 523.
For PSGKENKTAAGGAPS, the antibody binding signal stood at 7800.
With PSGKEKKPATGGTPS, the antibody binding signal stood at 8500.
As to SGTDNKPAAGGTPSP, the antibody binding signal stood at 2180.
For PPSGKDNKPATGGAP, the antibody binding signal came out at 1140.
Sequence SGTEKKTAAGEAPSQ came in with an antibody binding signal of 556.
